Paper PMC6212790
The list shows a part of the results. At the low end of the ranking the order means little.

target: T1, GST-Rok (full length) (UniProt O34857); experiment: protein binding microarray; conditions: Rok is a gene silencer of Bacillus subtilis; high values mean tight binding; most listed sequences are background and not binding sites; double strand, one strand shown;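 further: rank score from −0.5 (least bound) to 0.5 (best bound)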
T1 sequence: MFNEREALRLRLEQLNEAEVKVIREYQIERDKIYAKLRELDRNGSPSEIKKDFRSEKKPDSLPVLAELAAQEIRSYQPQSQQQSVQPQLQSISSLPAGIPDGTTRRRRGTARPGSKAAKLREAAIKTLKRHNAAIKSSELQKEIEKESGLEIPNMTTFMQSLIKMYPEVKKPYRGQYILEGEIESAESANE

Sequence | binding signal [E-score]
CCTGCGCA | 0.0304
AAAGTCGC | 0.0343
AAAGCCAA | -0.143
ACTCATCT | -0.0608
AATGGACC | -0.0357
GAATGCAA | -0.0116
ATGAGGAC | -0.244
ATGAGGGC | -0.183
TGAGCGAA | 0.0392
ACGCGCAA | 0.0495
AATGAACA | 0.159
CTGGTACA | 0.21
CCCCGCAA | -0.272
ATGCCTCC | -0.253
ACGGCCCA | -0.32
ACGGGTAA | -0.00525
AGAGCCCA | -0.362
AACAGGGG | -0.255
GGGTAACA | 0.0142
ACGGTTAT | 0.294
AGTTGGTC | -0.276
ACTGTGAG | 0.151
CGCAAAGC | -0.153
CTTTATCC | -0.0987
CTGGCTAC | -0.105

Sequence | binding signal [E-score]
AATCGGAC | 0.023
CCGGGAGG | -0.296
GGACGTTA | -0.0674
CGAAAAAG | -0.00929
GACAAAAA | 0.0475
GCACAAAC | 0.0295
AAGGATCT | -0.0752
ACGGGCAG | -0.257
AGTCCTGC | -0.246
ACGCCGAT | 0.00156
GTCGAGCA | -0.118
GGCCGAGA | -0.261
AGCTATCC | 0.0864
GATTGGAA | -0.0483
CTACTTAA | 0.372
AGACAATC | 0.096
CTATTTTC | 0.344
AAGGTTTC | -0.202
AGGTTATC | 0.0915
CACCATAC | 0.0395
ACAGTACG | 0.142
AATCACCA | -0.078
AGTACTTG | 0.297
ACCCACTC | 0.0222
ATGCCGGA | -0.13

Sequence | binding signal [E-score]
GCTTCAGA | -0.348
CAGGCGGC | -0.38
TAGGATGA | 0.123
GGGAAGAA | -0.152
AGAAAGAT | 0.0756
ACACAGAT | 0.0555
GCACACAC | -0.177
CAGTGTAG | 0.233
ATTAGTCG | 0.0487
ACATCATC | -0.0524
AACTATAC | 0.33
CAGGTGAG | -0.216
AAATTTCG | 0.216
CGAAGCCA | -0.165
ATTACCTC | 0.167
CAGATGCC | -0.284
AAGAGCGG | -0.237
CCACACGC | -0.153
AAAGCAGT | -0.147
ACCTTATA | 0.106
CCTTTTGA | -0.0644
CGAATACA | 0.186
GCAGCCGC | -0.259
ACGAACGA | -0.116
GCGAACGC | -0.213

Sequence | binding signal [E-score]
CAAAGGTC | -0.233
GCCATTAC | -0.0445
AACCATTA | 0.125
ACCCAATC | 0.0244
ATTTAGTG | 0.166
CGATAGGC | 0.0165
CCTGTGAG | -0.236
CCACCACC | -0.235
TATAACAA | 0.115
CGCCACCG | -0.165
GCATACTA | 0.325
CCCGCCGA | -0.228
TAGTCGCA | -0.00994
CGGCCGAG | -0.15
CACACCTG | -0.112
AGTATGCA | 0.109
GTTCCAGA | -0.00944
ACAGAGGC | -0.125
TAACAATA | 0.279
CGTCGTAA | 0.137
AGGTCGCG | -0.157
AAATCAGC | -0.034
ACCCAAGG | -0.366
CTCGAGGA | 0.0585
AGAACTGA | 0.126

Sequence | binding signal [E-score]
ATAAAGAT | 0.189
AATTGAGG | 0.106
ACAATCTA | 0.283
CTGTAACA | 0.0487
ATAAGCGC | 0.037
GGGGCCAA | -0.067
CGCCGGCG | -0.381
ACAGACCC | -0.29
ATAAGAGG | 0.0493
AAATATCT | 0.355
GGCGACCA | -0.0886
CGCGTGGA | -0.0544
AGATACAG | 0.116
ATGTTGTC | 0.109
ACTGGCCA | -0.0549
AATACGGG | 0.105
GAGGAGTA | -0.0342
ACCTCTAT | -0.0213
AGACCTAA | 0.0612
CACGATGA | -0.0769
ATTGCATA | 0.226
CGGCACCG | -0.254
ACCTTACC | -0.00261
ATCCATAG | 0.0675
AAGCTGGG | -0.317

Sequence | binding signal [E-score]
TTACCAAA | 0.236
CTTATGAC | 0.247
ACCTTGGC | -0.12
CGTATGCA | 0.0909
CTCTCTAC | 0.0296
CTTCTTTA | 0.0111
GAAGGCTC | -0.367
CTTGCATC | -0.0878
GTGATTCA | -0.0295
GGCAACTA | 0.171
AGCAGCGA | 0.141
AAATTGAC | 0.177
AAGTCCTG | -0.135
CAACCTGC | -0.143
AGTGAGGA | -0.0361
CTGGCCAC | -0.145
CTCAAGTA | 0.201
CCGCGCGC | -0.15
ACTAAAGG | -0.061
ATCGGGGC | -0.281
TATGCGGA | 0.106
TACTTGAA | 0.0791
GTGTAGCA | 0.109
CGTCGGCC | -0.362
ACTCGATG | 0.218

Sequence | binding signal [E-score]
ACGCTTAG | -0.129
AGCGGCTA | -0.132
ATCCCAGA | -0.144
CACGAGCG | -0.19
GACCCTGC | -0.196
TATCGTAA | 0.293
ACCTATAT | 0.301
CGGCACCA | -0.19
AGCCGAGC | -0.277
TCATCAGA | 0.0627
AAAACCAT | 0.169
ACCTGAAA | -0.124
AGATCGTA | 0.202
CACTCCCC | -0.399
CAGTATAG | 0.165
GAAGAGAA | 0.0662
GCCTCGCC | -0.429
ACGGAGAC | -0.0965
CTTAATAA | 0.146
TAGTGGAA | 0.164
ATCCGGAT | 0.177
CGGAACGC | -0.241
